Results: the supplement of paper PMC12067093, “Discovery and optimisation of a covalent ligand for TRIM25 and its application to targeted protein ubiquitination” (Chemical Science, 2025)
The full data set covers some 21,000 targets. This sample favours those with the largest changes.

Compound: Cc1cc(ccc1-c1ccccc1)C(=O)N1CCCN(CC1)C(=O)CCl [compound 10]
Test: probe-labelled cysteine peptide fold change vs DMSO (competition) (log2 fold change); higher = less target engagement (more negative = stronger competition)
Conditions: THP-1, incubation time: 4 h
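Also: competitive profiling in live THP-1 cells: cysteine peptides tagged with an iodoacetamide desthiobiotin (IA-DTB) probe, intensity after compound treatment relative to DMSO-treated cells.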

Chain of UniProt Q96N21 (Q96N21 whole entry, looked up): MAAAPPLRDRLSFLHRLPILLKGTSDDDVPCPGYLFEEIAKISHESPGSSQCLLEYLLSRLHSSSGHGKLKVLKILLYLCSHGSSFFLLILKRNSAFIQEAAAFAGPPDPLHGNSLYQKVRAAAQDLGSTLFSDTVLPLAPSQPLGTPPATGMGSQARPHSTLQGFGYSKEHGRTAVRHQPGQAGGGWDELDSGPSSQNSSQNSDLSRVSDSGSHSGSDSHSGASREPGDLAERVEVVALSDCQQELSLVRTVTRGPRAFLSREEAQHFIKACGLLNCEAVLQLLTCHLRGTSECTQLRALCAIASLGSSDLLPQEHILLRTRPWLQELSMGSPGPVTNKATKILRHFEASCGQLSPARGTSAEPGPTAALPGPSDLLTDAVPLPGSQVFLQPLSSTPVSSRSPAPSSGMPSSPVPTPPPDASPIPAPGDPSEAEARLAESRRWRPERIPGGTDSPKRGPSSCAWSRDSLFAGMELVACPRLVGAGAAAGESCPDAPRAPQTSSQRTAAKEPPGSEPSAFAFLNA
Chain of UniProt Q9NXH8 (Q9NXH8 whole entry, looked up): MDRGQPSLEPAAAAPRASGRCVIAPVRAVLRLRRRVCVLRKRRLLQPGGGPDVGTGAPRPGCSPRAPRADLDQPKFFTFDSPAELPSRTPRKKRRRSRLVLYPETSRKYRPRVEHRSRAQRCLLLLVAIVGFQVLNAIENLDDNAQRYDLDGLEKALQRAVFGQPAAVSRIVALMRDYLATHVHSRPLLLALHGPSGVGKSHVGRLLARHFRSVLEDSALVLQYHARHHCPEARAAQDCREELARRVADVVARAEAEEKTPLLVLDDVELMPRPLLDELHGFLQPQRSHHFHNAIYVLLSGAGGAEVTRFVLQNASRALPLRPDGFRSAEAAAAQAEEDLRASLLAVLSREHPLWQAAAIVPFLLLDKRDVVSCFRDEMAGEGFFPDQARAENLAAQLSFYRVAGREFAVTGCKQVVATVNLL
Chain of UniProt P18583 (P18583 whole entry, looked up): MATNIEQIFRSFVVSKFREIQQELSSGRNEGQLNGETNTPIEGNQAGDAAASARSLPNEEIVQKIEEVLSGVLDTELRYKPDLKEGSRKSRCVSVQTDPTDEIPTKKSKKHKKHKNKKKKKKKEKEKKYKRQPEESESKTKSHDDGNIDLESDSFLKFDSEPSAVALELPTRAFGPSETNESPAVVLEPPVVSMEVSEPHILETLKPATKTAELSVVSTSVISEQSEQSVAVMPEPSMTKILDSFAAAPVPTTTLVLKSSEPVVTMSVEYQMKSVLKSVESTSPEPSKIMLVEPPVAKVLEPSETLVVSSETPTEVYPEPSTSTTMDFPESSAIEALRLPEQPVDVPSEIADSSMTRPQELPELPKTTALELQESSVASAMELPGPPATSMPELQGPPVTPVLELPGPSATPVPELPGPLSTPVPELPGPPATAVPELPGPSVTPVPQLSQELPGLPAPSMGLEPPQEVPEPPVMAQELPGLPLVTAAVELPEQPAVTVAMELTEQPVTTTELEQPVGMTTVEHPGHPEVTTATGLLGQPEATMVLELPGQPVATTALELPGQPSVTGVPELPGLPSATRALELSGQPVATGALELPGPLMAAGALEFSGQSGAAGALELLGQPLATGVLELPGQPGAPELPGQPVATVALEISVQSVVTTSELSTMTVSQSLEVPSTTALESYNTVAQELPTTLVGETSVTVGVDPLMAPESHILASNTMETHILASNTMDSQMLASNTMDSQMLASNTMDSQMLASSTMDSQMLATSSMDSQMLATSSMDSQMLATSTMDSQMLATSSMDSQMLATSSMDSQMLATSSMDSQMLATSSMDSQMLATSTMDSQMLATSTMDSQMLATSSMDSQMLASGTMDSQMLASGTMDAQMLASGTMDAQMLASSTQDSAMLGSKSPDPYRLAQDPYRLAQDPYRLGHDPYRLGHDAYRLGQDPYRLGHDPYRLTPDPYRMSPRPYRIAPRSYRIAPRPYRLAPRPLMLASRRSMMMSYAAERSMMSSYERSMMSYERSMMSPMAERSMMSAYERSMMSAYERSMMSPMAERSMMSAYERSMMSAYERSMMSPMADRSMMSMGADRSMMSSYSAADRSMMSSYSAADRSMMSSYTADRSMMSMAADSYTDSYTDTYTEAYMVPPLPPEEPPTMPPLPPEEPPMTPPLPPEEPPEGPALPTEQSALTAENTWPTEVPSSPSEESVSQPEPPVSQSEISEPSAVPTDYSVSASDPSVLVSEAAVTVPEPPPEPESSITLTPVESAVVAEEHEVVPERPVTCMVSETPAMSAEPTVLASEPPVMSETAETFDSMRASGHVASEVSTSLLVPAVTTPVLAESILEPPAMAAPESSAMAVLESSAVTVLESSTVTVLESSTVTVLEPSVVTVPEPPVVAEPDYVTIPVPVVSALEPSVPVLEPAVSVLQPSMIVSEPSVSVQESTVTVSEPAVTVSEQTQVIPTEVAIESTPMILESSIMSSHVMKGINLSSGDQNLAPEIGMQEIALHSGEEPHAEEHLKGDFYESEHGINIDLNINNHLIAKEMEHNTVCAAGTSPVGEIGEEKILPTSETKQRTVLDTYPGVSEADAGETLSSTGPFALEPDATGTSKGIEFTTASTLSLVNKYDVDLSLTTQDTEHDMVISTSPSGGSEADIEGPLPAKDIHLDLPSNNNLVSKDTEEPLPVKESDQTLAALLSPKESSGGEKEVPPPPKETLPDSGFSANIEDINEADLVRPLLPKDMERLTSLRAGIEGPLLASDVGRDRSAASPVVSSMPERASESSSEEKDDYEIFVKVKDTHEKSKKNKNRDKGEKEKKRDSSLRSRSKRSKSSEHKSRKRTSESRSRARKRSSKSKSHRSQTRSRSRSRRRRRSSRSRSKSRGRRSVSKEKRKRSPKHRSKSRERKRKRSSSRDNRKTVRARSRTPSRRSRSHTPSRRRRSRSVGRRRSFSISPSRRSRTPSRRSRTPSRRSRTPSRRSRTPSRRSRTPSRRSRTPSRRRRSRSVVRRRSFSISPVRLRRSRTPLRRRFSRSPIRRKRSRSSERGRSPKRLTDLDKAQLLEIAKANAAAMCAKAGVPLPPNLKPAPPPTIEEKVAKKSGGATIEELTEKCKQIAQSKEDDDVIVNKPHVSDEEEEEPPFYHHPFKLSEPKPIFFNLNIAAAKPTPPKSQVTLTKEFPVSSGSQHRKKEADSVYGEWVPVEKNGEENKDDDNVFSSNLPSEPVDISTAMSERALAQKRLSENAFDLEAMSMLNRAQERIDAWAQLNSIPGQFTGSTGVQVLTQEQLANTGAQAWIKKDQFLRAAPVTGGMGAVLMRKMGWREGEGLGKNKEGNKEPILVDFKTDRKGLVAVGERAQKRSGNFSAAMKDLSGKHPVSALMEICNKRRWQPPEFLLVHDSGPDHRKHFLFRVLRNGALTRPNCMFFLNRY
Chain of UniProt Q9P2R7 (Q9P2R7 whole entry, looked up): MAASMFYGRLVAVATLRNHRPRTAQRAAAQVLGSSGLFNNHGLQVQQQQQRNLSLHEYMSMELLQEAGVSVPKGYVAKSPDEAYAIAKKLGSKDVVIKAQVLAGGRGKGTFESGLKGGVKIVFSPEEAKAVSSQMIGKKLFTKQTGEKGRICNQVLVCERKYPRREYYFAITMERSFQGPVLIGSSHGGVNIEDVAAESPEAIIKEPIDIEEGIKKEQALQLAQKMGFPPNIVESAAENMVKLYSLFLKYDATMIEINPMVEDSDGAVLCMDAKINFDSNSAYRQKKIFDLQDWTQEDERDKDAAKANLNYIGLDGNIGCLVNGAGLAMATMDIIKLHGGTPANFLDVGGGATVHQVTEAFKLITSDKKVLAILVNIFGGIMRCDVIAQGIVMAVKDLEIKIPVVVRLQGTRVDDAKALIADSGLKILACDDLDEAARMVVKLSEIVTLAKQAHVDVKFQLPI
Chain of UniProt Q96SB4 (Q96SB4 whole entry, looked up): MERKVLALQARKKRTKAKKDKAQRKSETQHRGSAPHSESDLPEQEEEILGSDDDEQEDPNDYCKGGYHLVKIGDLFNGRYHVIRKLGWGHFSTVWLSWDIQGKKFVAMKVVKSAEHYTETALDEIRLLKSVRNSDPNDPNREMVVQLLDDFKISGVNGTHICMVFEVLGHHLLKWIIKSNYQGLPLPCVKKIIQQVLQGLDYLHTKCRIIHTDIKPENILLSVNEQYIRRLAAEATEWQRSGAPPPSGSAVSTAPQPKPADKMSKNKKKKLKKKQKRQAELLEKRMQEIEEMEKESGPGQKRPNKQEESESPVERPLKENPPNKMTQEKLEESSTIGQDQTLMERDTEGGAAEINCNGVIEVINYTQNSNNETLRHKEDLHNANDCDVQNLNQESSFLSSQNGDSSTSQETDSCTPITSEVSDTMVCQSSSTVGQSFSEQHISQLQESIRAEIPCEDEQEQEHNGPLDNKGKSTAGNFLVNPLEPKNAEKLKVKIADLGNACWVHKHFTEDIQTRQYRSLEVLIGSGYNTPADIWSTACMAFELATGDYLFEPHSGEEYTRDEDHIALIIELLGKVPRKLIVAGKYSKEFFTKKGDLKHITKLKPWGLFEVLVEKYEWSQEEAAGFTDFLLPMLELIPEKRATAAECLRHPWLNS
Chain of UniProt Q9BYN0 (Q9BYN0 whole entry): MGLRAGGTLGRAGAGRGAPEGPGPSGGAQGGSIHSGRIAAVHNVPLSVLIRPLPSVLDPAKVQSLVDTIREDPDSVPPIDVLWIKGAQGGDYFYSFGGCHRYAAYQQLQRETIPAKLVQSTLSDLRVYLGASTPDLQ
Chain of UniProt Q9UNH6 (Q9UNH6 whole entry, looked up): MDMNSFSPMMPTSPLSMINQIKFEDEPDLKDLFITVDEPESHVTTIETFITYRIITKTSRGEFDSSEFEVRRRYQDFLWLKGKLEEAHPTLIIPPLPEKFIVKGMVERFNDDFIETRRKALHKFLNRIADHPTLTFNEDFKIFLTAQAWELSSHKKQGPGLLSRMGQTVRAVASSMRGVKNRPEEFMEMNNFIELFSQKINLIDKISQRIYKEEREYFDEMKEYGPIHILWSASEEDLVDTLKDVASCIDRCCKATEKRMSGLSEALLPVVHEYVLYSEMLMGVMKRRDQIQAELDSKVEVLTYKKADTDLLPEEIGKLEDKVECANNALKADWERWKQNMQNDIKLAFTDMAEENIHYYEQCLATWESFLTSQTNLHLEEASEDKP

Target	probe-labelled cysteine peptide fold change (10 µM)	probe-labelled cysteine peptide fold change (50 µM)
TKFC_Q3LXA3_13+24_LVNSVAGCADDALAGLVACNPNLQLLQGHR (UniProt Q3LXA3)	0.2	0.273
TFB2M_Q9H5Q4_102_PSRPPHLLLECNPGPGILTQALLEAGAK (UniProt Q9H5Q4)	-0.0999	-0.0748
TAB1_Q15750_235_QVGIICGQESTR (UniProt Q15750)	0.111	0.171
TES_Q9UGI8_196_SEALGVGDVKLPCEMDAQGPK (UniProt Q9UGI8)	-0.45	-1.06
TNIP1_Q15025_171_LETTLSVCAEEPDHGQLFTHLGR (UniProt Q15025)	-0.191	-0.111
TANGO6_Q9C0B7_537_AVPSLHSLCQFR (UniProt Q9C0B7)	-0.0489	0.382
TOP2B_Q02880_476_HSLECTLILTEGDSAK (UniProt Q02880)	0.18	0.129
SNX6_Q9UNH7_149_KTVAMHEVFLCR (UniProt Q9UNH7)	-0.457	-1.64
TOMM40_O96008_74+76_TPGAATASASGAAEDGACGCLPNPGTFEECHRK (UniProt O96008)	-0.254	-1.45
TCEAL5_Q5H9L2_149_ECGDVSR<|>TCEAL6_Q6IPX3_143_ECGDVSR (UniProt Q6IPX3+Q5H9L2)	-0.0207	-0.39
SUPT6H_Q7KZ85_1265_VGMTVHCR (UniProt Q7KZ85)	-0.0261	-0.222
TOR4A_Q9NXH8_374_DVVSCFRDEMAGEGFFPDQAR (UniProt Q9NXH8)	0.0302	0.101
TMPO_P42167_363_EMFPYEASTPTGISASCR (UniProt P42167)	-0.0695	-0.103
STAG2_Q8N3U4_308_AICIEEIGIWMK (UniProt Q8N3U4)	0.294	0.678
TACC3_Q9Y6A5_242_HGGVCAPAAVATSPPGAIPK (UniProt Q9Y6A5)	-0.111	-0.0794
SRP72_O76094_179_VVPENLGLQEGTHELCYNTACALIGQGQLNQAMK (UniProt O76094)	0.394	0.0292
TNS3_Q68CZ2_1241_HFLIECTPK (UniProt Q68CZ2)	-0.174	-1.35
SUCLA2_Q9P2R7_152+158_ICNQVLVCER (UniProt Q9P2R7)	0.0845	-0.0221
SON_P18583_1551_EMEHNTVCAAGTSPVGEIGEEK (UniProt P18583)	-0.31	-0.236

Target	probe-labelled cysteine peptide fold change (10 µM)	probe-labelled cysteine peptide fold change (50 µM)
TM9SF1_O15321_107_ILCHMQLSSAQVEQLR (UniProt O15321)	0.128	0.161
THOC6_Q86W42_35_LHMTIFSQSVSPCGK (UniProt Q86W42)	-0.286	-1.43
TANGO6_Q9C0B7_15_QAVGSGAQETCGLDR (UniProt Q9C0B7)	-0.228	-1.05
TBL1X_O60907_238_GHESEVFICAWNPVSDLLASGSGDSTAR<|>TBL1Y_Q9BZK7_185_GHESEVFICAWNPVSDLLASGSGDSTAR (UniProt Q9BZK7+O60907)	0.343	0.127
TBC1D1_Q86TI0_676_ACDSSSR (UniProt Q86TI0)	-0.0589	1.07
TM9SF4_Q92544_104_KCEVLCSQSNKPVTLTVEQSR (UniProt Q92544)	0.0199	-0.291
THBS4_P35443_925_LGVFCFSQENIIWSNLK (UniProt P35443)	-0.755	-0.5
THEMIS2_Q5TEJ8_453_YSLADLTAQFSLPCEVK (UniProt Q5TEJ8)	-0.04	-0.143
TEC_P42680_74_NDDGVIPCQNK (UniProt P42680)	-0.152	0.00627
SNX7_Q9UNH6_325_KADTDLLPEEIGKLEDKVECANNALK (UniProt Q9UNH6)	-0.516	-1.95
SRXN1_Q9BYN0_99_GAQGGDYFYSFGGCHR (UniProt Q9BYN0)	1.08	0.175
TOP2B_Q02880_1018+1029_LQTTLTCNSMVLFDHMGCLK (UniProt Q02880)	0.0431	0.21
SRBD1_Q8N5C6_294_MSECLLK (UniProt Q8N5C6)	-0.808	-1.34
TEPSIN_Q96N21_302_ALCAIASLGSSDLLPQEHILLR (UniProt Q96N21)	0.126	-0.793
TBRG4_Q969Z0_191_HLAFLAESCATLSQEQHSQELLAELLTHLER (UniProt Q969Z0)	-0.0116	0.027
TARS_P26639_343_DQELYFFHELSPGSCFFLPK (UniProt P26639)	-0.0434	0.0997
STRAP_Q9Y3F4_305_CVLPEEDSGELAKPK (UniProt Q9Y3F4)	0.162	-0.46
SRPK1_Q96SB4_647_RATAAECLR (UniProt Q96SB4)	0.323	1.08
